Over roughly 33,000 sequences, “E-score (-0.5 to 0.5)” has its median near -0.012; the highest 2% begin near 0.29. The list shows a part of the results.
Target: T1, Ybr033w (UniProt P38073)
T1 sequence: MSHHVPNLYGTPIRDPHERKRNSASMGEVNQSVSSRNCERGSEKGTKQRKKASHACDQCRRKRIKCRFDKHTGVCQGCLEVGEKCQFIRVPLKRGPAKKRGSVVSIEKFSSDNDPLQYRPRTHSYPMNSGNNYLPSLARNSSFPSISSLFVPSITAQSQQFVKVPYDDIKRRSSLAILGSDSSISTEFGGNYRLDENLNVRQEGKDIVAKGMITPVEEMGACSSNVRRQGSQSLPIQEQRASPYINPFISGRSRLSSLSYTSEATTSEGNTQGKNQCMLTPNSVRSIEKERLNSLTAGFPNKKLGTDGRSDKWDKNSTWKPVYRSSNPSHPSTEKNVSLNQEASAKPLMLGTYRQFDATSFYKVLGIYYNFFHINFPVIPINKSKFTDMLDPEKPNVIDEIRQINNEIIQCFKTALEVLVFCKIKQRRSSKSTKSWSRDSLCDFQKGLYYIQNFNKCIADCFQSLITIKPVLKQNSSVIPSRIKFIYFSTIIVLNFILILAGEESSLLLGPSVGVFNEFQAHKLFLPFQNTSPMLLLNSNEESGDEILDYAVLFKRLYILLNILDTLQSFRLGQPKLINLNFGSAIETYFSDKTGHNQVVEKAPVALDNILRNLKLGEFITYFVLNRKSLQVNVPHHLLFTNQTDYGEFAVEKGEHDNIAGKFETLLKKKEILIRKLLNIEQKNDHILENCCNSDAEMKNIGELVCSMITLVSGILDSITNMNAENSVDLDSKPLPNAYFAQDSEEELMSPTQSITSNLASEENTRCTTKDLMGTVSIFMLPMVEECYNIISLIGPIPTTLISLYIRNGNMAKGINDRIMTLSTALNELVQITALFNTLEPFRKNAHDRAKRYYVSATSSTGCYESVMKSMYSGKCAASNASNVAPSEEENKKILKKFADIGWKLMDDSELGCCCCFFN
Assay: PBM E-score (8-mer binding enrichment) (E-score (-0.5 to 0.5)); higher = stronger / more preferred TF binding; most listed sequences are background and not binding sites
Conditions: protein concentration: 200 nM; construct: GST-full length
Description: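 Universal 'all 10-mer' protein binding microarrays (Agilent AMADID 015681) probed with GST-tagged S. cerevisiae TFs (full-length or DBD) made by in vitro transcription/translation (PURExpress), about 100-200 nM. Bound TF was detected with fluorescent anti-GST. Each ungapped 8-mer (which stands for itself and its reverse complement) is scored by the PBM enrichment score (E-score), a modified Wilcoxon-Mann-Whitney statistic from -0.5 to +0.5, computed with the Universal PBM Analysis Suite. Scale: above 0.35 generally sequence-specific binding.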

| Sequence | PBM E-score |
| --- | --- |
| CGTTTAAC | 0.124 |
| AATTGGCT | 0.15 |
| ATGACAAA | 0.0607 |
| CGAGCTAG | -0.136 |
| AAGCCACC | -0.195 |
| CCTGAGAG | -0.304 |
| ACCCGTTC | -0.0745 |
| AATTCGCT | 0.248 |
| ATGCAGTG | -0.0558 |
| AGCGTGAG | -0.234 |
| AGGGCTTA | -0.142 |
| ACCTTCCA | -0.0391 |
| ACGACCTA | -0.00481 |
| GATATGAC | 0.135 |
| AAATACAG | 0.111 |
| GGACTCCC | -0.378 |
| AATGTGGT | 0.0529 |
| AATAACCC | 0.203 |
| TAACAAGA | 0.069 |
| CGGACTCA | -0.168 |
| AGCGCTAA | -0.00937 |
| CTCTATAC | -0.0417 |
| ACCGTTTA | 0.00161 |
| ATTAGTGG | 0.157 |
| AAGTTAAG | -0.149 |

| Sequence | PBM E-score |
| --- | --- |
| TAATACGA | 0.176 |
| TCTAGAAA | 0.0702 |
| CAATCCCC | -0.0646 |
| AGACCTAA | -0.157 |
| AGTCTACA | -0.0713 |
| CAACTGTG | -0.103 |
| AGGGGGCG | -0.322 |
| AGTTCAAC | 0.128 |
| CATTAGGC | -0.00848 |
| CTCCAACA | 0.105 |
| CATACGAC | 0.0253 |
| ATACTCAA | 0.271 |
| CATGCCGA | -0.0386 |
| ACCGTAAC | -0.0726 |
| AGACTAAC | 0.0352 |
| CGGGTCTC | -0.316 |
| CGGACCAA | 0.062 |
| GGGAGTTA | 0.132 |
| AACCAGAT | 0.123 |
| GTTTCTGA | -0.0471 |
| CGCGAGCA | -0.12 |
| ATAGAATG | 0.0842 |
| CCCTAAAC | -0.126 |
| TGCTCGAA | -0.0338 |
| GGGGCAAC | -0.238 |

| Sequence | PBM E-score |
| --- | --- |
| AGTTTTCG | 0.186 |
| GGCCTGCA | -0.386 |
| ATACTTAG | 0.127 |
| CCCTCATA | -0.0752 |
| ATTTCTGA | 0.0138 |
| TACCACCA | 0.076 |
| GCATGGGC | -0.171 |
| CTAAACGC | 0.0163 |
| AAGCCCCC | -0.436 |
| TATAGATA | 0.0691 |
| CTGGGTCA | -0.14 |
| ACCTATAC | 0.207 |
| ATTGTAAA | 0.287 |
| ATTCAACG | 0.114 |
| ATGGACTC | -0.277 |
| AGGGGCTA | -0.271 |
| CGTCACTC | -0.138 |
| TCACGCAA | 0.175 |
| CGTGCCAA | -0.13 |
| GGCGGCAC | -0.311 |
| CCCTGTTA | 0.0393 |
| GAGCTGTA | -0.11 |
| AGTGGTGG | -0.0557 |
| AAATAAAT | 0.298 |
| CATGTGCG | -0.0312 |

| Sequence | PBM E-score |
| --- | --- |
| CTGCCGAC | -0.185 |
| CAACCTGG | 0.0332 |
| CCCCGGAA | -0.117 |
| AAATCAGA | 0.0788 |
| ACATAAAA | 0.171 |
| CCTACCCC | -0.266 |
| ATCTTTCG | 0.00412 |
| AACAGTGG | -0.157 |
| GATAGTAC | 0.136 |
| AGGGCCCG | -0.274 |
| TACCATGA | -0.0398 |
| ACAGACAT | 0.061 |
| ACGTTTGC | -0.0864 |
| GTCTTTCA | -0.0591 |
| ACCAATCA | 0.208 |
| ACACTTTA | 0.15 |
| CAATTAGC | -0.0298 |
| CCGTCATA | 0.0211 |
| CTGATAAG | 0.126 |
| ACTAACTC | 0.0421 |
| ACGTCGAT | 0.096 |
| CCACGCCC | -0.373 |
| CCCCCACA | -0.378 |
| ATTCTCCA | 0.175 |
| AGACGGGA | -0.0819 |

| Sequence | PBM E-score |
| --- | --- |
| ACTTGTCT | 0.163 |
| AAGCGGAC | -0.143 |
| CGAGAAAC | 0.00673 |
| GACCGCGC | -0.178 |
| ATCGGGAG | -0.0908 |
| ATTCGCTG | 0.0858 |
| AACCGCTT | 0.0495 |
| CCACGCTC | -0.126 |
| ACAATGAG | 0.104 |
| CTTCACAA | 0.0563 |
| ACGGTGAC | -0.156 |
| ATCGACAC | -0.0724 |
| GCGAAGTA | -0.0195 |
| CACGGTGG | -0.161 |
| ACCGGGGC | -0.229 |
| AGCAGTGA | 0.128 |
| AGGGTCGA | -0.243 |
| CCTCAAAG | -0.026 |
| ATGGTGGA | 0.136 |
| CCGTTTAG | 0.0209 |
| AACTGTCT | -0.0958 |
| ATATGCAG | -0.148 |
| GCTGGTCA | -0.141 |
| ATTTAGAG | 0.142 |
| AAGCGTTA | -0.0209 |

| Sequence | PBM E-score |
| --- | --- |
| CAATTTGC | 0.00865 |
| GCCCTTCC | -0.171 |
| AGTGAGTC | -0.054 |
| ACCTCAGT | -0.00425 |
| ACCCCGCG | -0.241 |
| GTAGCAGA | 0.105 |
| CCCCCAAC | -0.292 |
| TAGAACCA | 0.0827 |
| AAGGAAGC | -0.21 |
| GACGCCAC | -0.197 |
| ATCGGACC | -0.122 |
| GAGGTTTA | 0.0128 |
| GTAATAAC | 0.113 |
| AGAGGTGC | -0.229 |
| CAGGCACA | -0.263 |
| CTAGATGA | 0.0268 |
| GTGCTGGA | -0.0549 |
| ATGCCGGC | -0.155 |
| GCGACCGC | -0.187 |
| ACGCTAAC | -0.0823 |
| GCAAGATA | 0.129 |
| CCTGTGGA | -0.248 |
| AGGTCCTA | -0.164 |
| GCTTGGTA | 0.127 |
| CATGGTAC | -0.0607 |

| Sequence | PBM E-score |
| --- | --- |
| GGATGGGA | -0.101 |
| AAAAGCCA | 0.3 |
| CCCGTGAG | -0.149 |
| TAGTACAA | 0.185 |
| CCCGCAGG | -0.216 |
| CTGATCAC | -0.0285 |
| AAGAACGA | 0.108 |
| CACTTCTA | -0.074 |
| ACGTCAGG | -0.168 |
| TCGGTACA | -0.0197 |
| CGCACTTA | 0.0893 |
| AAAGGCTG | -0.0981 |
| CATCGGGG | -0.149 |
| ATGTAGTC | 0.112 |
| GGTAACCA | -0.115 |
| CGGAGTAC | -0.116 |
| CACTACAG | 0.0923 |
| TGATCCCA | -0.00531 |
| GCTTTGAA | -0.0416 |
| ACGTGAAC | -0.271 |
| ATTGTGGA | 0.153 |
| CGTGGAAC | 0.0481 |
